A compilation of properties of binary mixtures (doi:10.1016/j.molliq.2016.01.085)
Some of these densities may be calculated back from excess volumes.

Assay: xn = mol fraction of the nth substance listed
Conditions: 101 kPa

**Q.** Which mass density (298.15 K, x2 = 0) does the source give for `CCCC[n+]1ccn(C)c1.F[P-](F)(F)(F)(F)F` + CCCOCCO here?
**A.** 1367.2 kg/m3

**Q.** What about the mass density (308.15 K, x2 = 0) of the same compound?
**A.** 1358.7 kg/m3

**Q.** And the mass density (323.15 K, x2 = 0)?
**A.** 1346 kg/m3

**Q.** For `CCCOCCO` + CCCC[n+]1ccn(C)c1.F[P-](F)(F)(F)(F)F, which mass density (298.15 K, x1 = 0.1468) is on record?
**A.** 1328.7 kg/m3

**Q.** And the mass density (298.15 K, x1 = 0.1945)?
**A.** 1315 kg/m3

**Q.** And the mass density (298.15 K, x1 = 0.3063)?
**A.** 1279.9 kg/m3

**Q.** What about the mass density (298.15 K, x1 = 0.5119) of the same compound?
**A.** 1202.8 kg/m3

**Q.** What about the mass density (298.15 K, x1 = 0.6168) of the same compound?
**A.** 1155.3 kg/m3

**Q.** What about the mass density (298.15 K, x1 = 0.8043) of the same compound?
**A.** 1051.5 kg/m3

**Q.** And the mass density (298.15 K, x1 = 0.8873)?
**A.** 995.5 kg/m3

**Q.** And the mass density (303.15 K, x1 = 0.1468)?
**A.** 1324.5 kg/m3

**Q.** And the mass density (303.15 K, x1 = 0.1945)?
**A.** 1310.7 kg/m3

**Q.** And the mass density (303.15 K, x1 = 0.3953)?
**A.** 1244.5 kg/m3

**Q.** And the mass density (303.15 K, x1 = 0.5119)?
**A.** 1198.5 kg/m3

**Q.** What about the mass density (303.15 K, x1 = 0.6168) of the same compound?
**A.** 1151 kg/m3

**Q.** What about the mass density (303.15 K, x1 = 0.702) of the same compound?
**A.** 1107.3 kg/m3

**Q.** And the mass density (303.15 K, x1 = 0.8873)?
**A.** 991.1 kg/m3

**Q.** And the mass density (303.15 K, x1 = 1)?
**A.** 902.7 kg/m3

**Q.** What about the mass density (308.15 K, x1 = 0.1468) of the same compound?
**A.** 1320.2 kg/m3

**Q.** And the mass density (308.15 K, x1 = 0.3063)?
**A.** 1271.3 kg/m3

**Q.** And the mass density (308.15 K, x1 = 0.3953)?
**A.** 1240.2 kg/m3

**Q.** And the mass density (308.15 K, x1 = 0.5119)?
**A.** 1194.2 kg/m3

**Q.** What about the mass density (308.15 K, x1 = 0.6168) of the same compound?
**A.** 1146.7 kg/m3

**Q.** And the mass density (308.15 K, x1 = 0.702)?
**A.** 1102.9 kg/m3

**Q.** And the mass density (308.15 K, x1 = 0.8873)?
**A.** 986.7 kg/m3

**Q.** And the mass density (308.15 K, x1 = 1)?
**A.** 898.3 kg/m3

**Q.** And the mass density (313.15 K, x1 = 0.1468)?
**A.** 1316 kg/m3

**Q.** What about the mass density (313.15 K, x1 = 0.1945) of the same compound?
**A.** 1302.2 kg/m3

**Q.** What about the mass density (313.15 K, x1 = 0.3063) of the same compound?
**A.** 1267.1 kg/m3

**Q.** What about the mass density (313.15 K, x1 = 0.3953) of the same compound?
**A.** 1235.9 kg/m3

**Q.** And the mass density (313.15 K, x1 = 0.5119)?
**A.** 1189.9 kg/m3

**Q.** And the mass density (313.15 K, x1 = 0.6168)?
**A.** 1142.3 kg/m3

**Q.** What about the mass density (313.15 K, x1 = 0.8043) of the same compound?
**A.** 1038.4 kg/m3

**Q.** What about the mass density (313.15 K, x1 = 0.8873) of the same compound?
**A.** 982.3 kg/m3

**Q.** And the mass density (313.15 K, x1 = 1)?
**A.** 893.9 kg/m3

**Q.** What about the mass density (318.15 K, x1 = 0.1468) of the same compound?
**A.** 1311.7 kg/m3

**Q.** What about the mass density (318.15 K, x1 = 0.1945) of the same compound?
**A.** 1297.9 kg/m3

**Q.** And the mass density (318.15 K, x1 = 0.3063)?
**A.** 1262.8 kg/m3

**Q.** And the mass density (318.15 K, x1 = 0.3953)?
**A.** 1231.6 kg/m3

**Q.** And the mass density (318.15 K, x1 = 0.702)?
**A.** 1094.2 kg/m3

**Q.** What about the mass density (318.15 K, x1 = 0.8043) of the same compound?
**A.** 1034 kg/m3

**Q.** And the mass density (318.15 K, x1 = 0.8873)?
**A.** 977.9 kg/m3

**Q.** And the mass density (318.15 K, x1 = 1)?
**A.** 889.5 kg/m3

**Q.** What about the mass density (323.15 K, x1 = 0.1945) of the same compound?
**A.** 1293.6 kg/m3

**Q.** What about the mass density (323.15 K, x1 = 0.3063) of the same compound?
**A.** 1258.5 kg/m3

**Q.** And the mass density (323.15 K, x1 = 0.3953)?
**A.** 1227.2 kg/m3

**Q.** What about the mass density (323.15 K, x1 = 0.5119) of the same compound?
**A.** 1181.2 kg/m3

**Q.** And the mass density (323.15 K, x1 = 0.702)?
**A.** 1089.8 kg/m3

**Q.** And the mass density (323.15 K, x1 = 0.8043)?
**A.** 1029.6 kg/m3

**Q.** What about the mass density (323.15 K, x1 = 0.8873) of the same compound?
**A.** 973.4 kg/m3

**Q.** What about the mass density (323.15 K, x1 = 1) of the same compound?
**A.** 885 kg/m3
